According to PubChem BioAssay AID624296 (National Center for Advancing Translational Sciences (NCATS), 2012):
Where “and” joins values, the source holds several entries; their conditions need not be identical. Equal entries are not always repeated. Out of some 350,000 compounds screened, about 9,900 (2.8%) were called active. This list was built around the results that the source calls inconclusive (neither active nor inactive); the mix of calls is not that of the screen. Calls come from the whole dose curve; as a rule, active = well fitted activation curve with a large enough effect; inconclusive = small, poorly fitted or top-dose-only effect; inactive = no such curve, though single readings can be large or run the other way. No potency is given beside an inconclusive call; the fits are too rough. More than one record can exist for a structure, and the calls need not agree.
Potency is the fitted concentration of half-maximal effect; tags give direction and shape of the fitted curve.

Experiment: A quantitative high throughput screen for small molecules that induce DNA re-replication in MCF 10a normal breast cells. Note: nearly all actives have a fitted effect of over 50% in size.
Details: MCF 10A DNA re-replication, Hoechst nuclear intensity, 48 h; series mostly up to 46.1 µM
For `Cc1cccc(-n2ncc3c(N(C)C4CCCCC4)ncnc32)c1`, the Potency was inconclusive [activator, single point].
For `O=C1CC2C(CCC23OCCO3)c2ccc3ccccc3c21` (stereo unspecified), the Potency was “inactive”.
In the case of `COC1(OC)C(/C=C/c2ccc(Cl)cc2)C(C#N)(C#N)C1(OC)OC` (stereo unspecified), the Potency is reported as active: 6.51 µM.
With `O=C(NNC1=C(C(=O)C(F)(F)F)CCC1)c1ccccc1Cl` the Potency was inconclusive [activator, partial curve, poor fit].
With `CCCCN1C(=O)C(C)=C(C)C1OCCc1ccc(OC)c(OC)c1` (stereo unspecified) the Potency was inconclusive [activator, single point].
With `Cc1ccc(S(=O)(=O)N2CCN(C(=O)CN3CCc4ccccc4C3)CC2)cc1` the Potency was “inactive”.
With `Cc1cc(C(=O)N/N=C/c2ccc([N+](=O)[O-])s2)n[nH]1` the Potency was inconclusive [activator, single point].
For `COc1ccc(CN(C2CCCCC2C)S(=O)(=O)c2ccc(S(=O)(=O)N(C)C)cc2)cc1OC` (stereo unspecified), the Potency was inconclusive [activator, partial curve, poor fit].
With `CCCN1CCc2c(sc3nc(SCC)n(-c4ccc(OC)cc4)c(=O)c23)C1` the Potency was active: 20.6 µM.
In the case of `CC1CCc2nc(N)c(C#N)c(-c3cccnc3)c2C1` (stereo unspecified), the Potency is reported as inconclusive [activator, single point].
With `O=C(O)CC(NS(=O)(=O)c1c(F)cc(F)cc1Br)c1ccccc1Cl` (stereo unspecified) the Potency was inconclusive [activator, partial curve, poor fit].
With `O=C1c2cccc3c([N+](=O)[O-])ccc(c23)C(=O)N1Cc1cccnc1` the Potency was active: 18.4 µM.
In the case of `CC(=O)N(Cc1ccc(F)cc1)C1=C(NCc2ccccc2)C(=O)c2ccccc2C1=O`, the Potency is reported as inconclusive [activator, full curve, poor fit].
In the case of `CC(=O)Nc1ccc(S(=O)(=O)N2CCCN(S(=O)(=O)c3ccc(C)cc3)CC2)cc1`, the Potency is reported as inconclusive [activator, partial curve, poor fit].
In the case of `CCCCN(C)C(=O)C1CCN(Cc2cccc(OCc3ccccc3)c2)CC1`, the Potency is reported as inconclusive [activator, partial curve, poor fit].
For `COc1ccc(C(OCC(O)CNC(C)c2ccccc2)c2ccc(OC)cc2)cc1` (stereo unspecified), the Potency was inconclusive [activator, single point].
For `CCOC(=O)C1(CC2CCCCO2)CCN(Cc2ccccc2-c2ccco2)CC1` (stereo unspecified), the Potency was inconclusive [activator, partial curve, poor fit].
For `Cc1ccc(-c2nnc(N3CCCCC3)c3ccccc23)cc1S(=O)(=O)NCC1CCCO1` (stereo unspecified), the Potency was “inactive”.
In the case of `Cc1ccc(C)c(S(=O)(=O)N2CCN(c3ncnc4sccc34)CC2)c1`, the Potency is reported as active: 18.4 µM.
In the case of `Cc1cccc(N2CCN(C(=O)c3cccc(N4CCCC4=O)c3)CC2)c1C`, the Potency is reported as inconclusive [activator, partial curve, poor fit].
With `CC(=O)Nc1ccc(S(=O)(=O)Nc2nc(C)nc3sc(C)c(C)c23)cc1` the Potency was inconclusive [activator, single point].
In the case of `CC1CC(NC(=O)Cc2ccc(Br)cc2)CC(C)(C)C1` (stereo unspecified), the Potency is reported as inconclusive [activator, single point].
In the case of `C/C(=N\NC(=O)c1ccc(-n2cnnn2)cc1)c1ccc(C)cc1`, the Potency is reported as inconclusive [activator, single point].
In the case of `C[C@]12CC[C@@H]3c4ccc(OC(=O)c5ccccc5)cc4CC[C@H]3[C@@H]1CC[C@@H]2O`, the Potency is reported as “inactive and active: 29.9 µM”.
For `Cc1csc2c(=O)[nH]cnc12`, the Potency was “inactive”.
In the case of `CN(CCO)c1cc(Sc2nc3ccccc3s2)c2nonc2c1[N+](=O)[O-]`, the Potency is reported as inconclusive [activator, single point].
For `O=C(CN1C(=O)/C(=C\c2cccc(Cl)c2)Sc2ccccc21)NCCCN1CCOCC1`, the Potency was active: 20.6 µM.
With `Cc1ccc(NC(=S)Nc2cccnc2)c(S(=O)(=O)N2CCCCC2)c1` the Potency was inconclusive [activator, single point].
In the case of `CCc1c(C)nc2c(-c3ccccc3)c(C)[nH]n2c1=O`, the Potency is reported as inconclusive [activator, single point].
For `CC[C@H](C)[C@H]1CNC(=S)N1CC1CCN(CCC23CC4CC(CC(C4)C2)C3)CC1`, the Potency was inconclusive [activator, partial curve, poor fit].
With `c1ccc(Cc2nnc(Sc3ccccc3)c3ccccc23)cc1` the Potency was inconclusive [activator, partial curve, poor fit].
With `CCN(CC)C(=O)CSc1ncnc2c1cnn2Cc1ccccc1` the Potency was inconclusive [activator, partial curve, poor fit].
For `CCN(CC)CCC(=O)N1c2ccccc2CCc2ccc(NC(=O)OC(C)C)cc21`, the Potency was inconclusive [activator, partial curve, poor fit].
With `Cc1cccc2c3nc4ccccc4nc3n(CCCN3C(=O)c4ccccc4C3=O)c12` the Potency was inconclusive [activator, partial curve].
With `COc1ccccc1/C=C1\CCC(C2CCCC2)C1=O` (stereo unspecified) the Potency was active: 18.4 µM.
With `CC(C)(CO)NS(=O)(=O)c1ccc2c(c1)oc(=O)c1cc(S(=O)(=O)NC(C)(C)CO)ccc12` the Potency was inconclusive [activator, single point].
For `NC(=O)c1ccccc1NCC(=O)c1ccc(Cl)cc1`, the Potency was inconclusive [activator, single point].
For `CCC1=Nc2cc(C(=O)NCc3ccco3)ccc2Sc2ccc(C)cc21`, the Potency was active: 1.46 µM.
For `Cc1cc(O)c(C(C[N+](=O)[O-])c2ccc(Cl)cc2Cl)c(=O)o1` (stereo unspecified), the Potency was inconclusive [activator, single point].
In the case of `COc1ccccc1/C=C/C(=O)NCC(=O)N/N=C/c1cc(Br)ccc1OC`, the Potency is reported as inconclusive [activator, partial curve, poor fit].
In the case of `CC(C)c1ccccc1-n1c(SCC(=O)N2CCc3ccccc3C2)nc2ccccc2c1=O`, the Potency is reported as inconclusive [activator, partial curve, poor fit].
